About 2,300 (1%) of roughly 220,000 compounds were called active. Inconclusive results, whose numbers are uncertain, are shown with a selection of clear calls. The call rests on the fitted dose curve; in most records, active means well fitted inhibition curve with a large enough effect; inconclusive means small, poorly fitted or top-dose-only effect, or effect the other way; inactive means no such curve, though single readings can be large or run the other way. Potencies of inconclusive entries are left out as doubtful fits.
molecular target: Neuropeptide S receptor (Homo sapiens) (UniProt Q6W5P4); test: qHTS Assay for Antagonists of the Neuropeptide S Receptor: cAMP Signal Transduction; details: CHO-NPSR cells, cAMP TR-FRET, antagonist mode; series mostly up to 38.3 µM; further: nearly all actives have a fitted effect of over 50% in size
Chain of UniProt Q6W5P4 (Q6W5P4 whole entry, looked up): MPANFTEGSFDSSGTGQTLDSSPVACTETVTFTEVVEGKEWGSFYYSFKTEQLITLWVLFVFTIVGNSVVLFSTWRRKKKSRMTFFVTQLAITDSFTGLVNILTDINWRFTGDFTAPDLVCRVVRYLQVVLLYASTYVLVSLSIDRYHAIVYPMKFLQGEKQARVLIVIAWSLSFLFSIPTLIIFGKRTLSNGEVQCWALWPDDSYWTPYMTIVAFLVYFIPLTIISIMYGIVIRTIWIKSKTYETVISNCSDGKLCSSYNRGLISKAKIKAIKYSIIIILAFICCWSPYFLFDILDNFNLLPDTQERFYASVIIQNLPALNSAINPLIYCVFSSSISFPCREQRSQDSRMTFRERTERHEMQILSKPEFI
Potency means the concentration at half of the fitted maximal effect; tags describe the fitted curve by direction and shape.

SMILES | Potency
COc1ccccc1NC(=O)CCC(=O)N/N=C(/C)c1ccc(C)cc1 | inactive
O=C(Nc1ccc(Cl)c(Cl)c1)OCCNC(=O)c1cccc(Cl)c1 | inconclusive [inhibitor, single point]
CCOC(=O)c1c(-c2ccc(C)cc2)csc1NC(=O)c1cc2ccccc2oc1=O | active: 10 µM
O=C(c1ccco1)N1CCN(C(c2ccccc2Cl)c2nnnn2Cc2ccco2)CC1 (stereo not drawn) | inconclusive [inhibitor, single point]
CN(C)S(=O)(=O)c1ccc(C(=O)Nc2nnc(Cc3ccccc3)s2)cc1 | inconclusive [inhibitor, single point]
CC(C)(CNC(=O)c1ccc([N+](=O)[O-])c(Cl)c1)CNC(=O)c1ccc([N+](=O)[O-])c(Cl)c1 | inconclusive [inhibitor, single point]
O=C(c1ccc(S(=O)(=O)N2CCCC2)cc1)N1CCC(CN2C(=O)c3cccc4cccc(c34)C2=O)CC1 | active: 10 µM
CC(C)(C)c1nnc(N/N=C/c2cc(Br)ccc2O)n(N)c1=O | inconclusive [inhibitor, single point]
CCCCCCCC(=O)OCC(=O)[C@@]1(O)CC[C@H]2[C@@H]3CCC4=CC(=O)CC[C@]4(C)[C@H]3[C@@H](O)C[C@@]21C | inactive
CCO[C@H]1OC(C(=O)Nc2ccccc2)=C[C@@H](c2cn(C(C)=O)c3ccccc23)[C@@H]1CCCO | inconclusive [activator, partial curve]
CCOc1cc(C2C(C(=O)OC)=CN(C3CCCC3)C=C2C(=O)OC)cc(Br)c1O | inconclusive [activator, single point]
COc1ccc(OC)c(NC(=O)c2ccc(NS(=O)(=O)c3c(C)noc3C)cc2)c1 | inconclusive [inhibitor, partial curve, poor fit]
COc1ccc2c(c1)CCc1c(C(=O)N3CCOCC3)noc1-2 | inactive
COc1ccc(NC(=O)C2CCN(c3nc(C)cc(C)n3)CC2)cc1 | inconclusive [inhibitor, full curve, poor fit]
CCOC(=O)c1cn(-c2ccccc2)nc1-c1ccncc1 | inconclusive [inhibitor, partial curve]
Cc1cccc(S(=O)(=O)N2CN(Cc3ccco3)c3nc4ccccc4nc32)c1 | inconclusive [inhibitor, partial curve]
Cc1[nH]nc2c1C(c1ccoc1)C(C#N)=C(N)O2 (stereo not drawn) | inactive
COc1ccc(-c2cn[nH]c2-c2ccc(OCc3ccccc3)cc2O)cc1OC | inactive
CCOc1ccccc1NC=C1C(=O)OC2(CCCCC2)OC1=O | inconclusive [inhibitor, partial curve]
CCC1CCCCN1CC(=O)Nc1cc(C)nn1-c1nc(C)cc(C)n1 (stereo not drawn) | inconclusive [inhibitor, single point]
CCN(CC)C(=O)/C(=C\c1ccc(Br)cc1)NC(=O)c1ccccc1OC | inconclusive [inhibitor, partial curve]
CCOC(=O)c1cnc(-n2cc(C)cn2)nc1NCc1ccc2c(c1)OCO2 | inconclusive [inhibitor, single point]

SMILES | Potency
N/C(=N\OC(=O)C(c1ccccc1)c1ccccc1)c1cccnc1 | inactive
O=C(N/N=C/c1cccc([N+](=O)[O-])c1)c1ccncc1 | inconclusive [activator, single point]
CCCCCCCCC(=O)N/N=C(\C)c1ccco1 | inactive
O=C(c1ccccc1)N1CC(COc2ccccc2)OC(c2cccnc2)O1 (stereo not drawn) | inconclusive [inhibitor, single point]
CCN(c1cccc(C)c1)S(=O)(=O)c1ccc2c(c1)CCN2C(C)=O | inactive
CCCCOCC1CC(CC#CCN2CCCCC2)C(=O)O1 (stereo not drawn) | inactive
CCCCOc1ccc2c(c1)C(=O)c1cc(O)ccc1-2 | inactive
COc1ccc(/C=N/Nc2ncnc3scc(-c4ccccc4)c23)cc1OC | inconclusive [inhibitor, partial curve, poor fit]
CC(C)CCn1nnnc1CN1CCN(C(c2ccccc2)c2ccccc2)CC1 | inconclusive [inhibitor, single point]
CCCn1c(=O)c2[nH]c(-c3ccc(OCC(=O)Nc4ccc(C#N)cc4)cc3)nc2n(CCC)c1=O | inconclusive [activator, full curve, poor fit]
Cc1cc(C)cc(NC(=O)CCC(=O)Nc2cc(C)on2)c1 | inactive
COc1ccc(OC)c(-n2c(-c3cnccn3)n[nH]c2=S)c1 | inconclusive [inhibitor, single point]
COC(=O)c1ccccc1Sc1c(/C=N/OCc2ccc(Cl)cc2)c(C(F)(F)F)nn1C | inconclusive [inhibitor, partial curve, poor fit]
O=C(O)CCC(=O)N1N=C(c2cccs2)CC1c1cn(-c2ccccc2)nc1-c1ccccc1 (stereo not drawn) | inconclusive [inhibitor, single point]
O=C(Oc1cccc(NC(=O)c2ccco2)c1)c1cccc(S(=O)(=O)N2CCCC2)c1 | inconclusive [inhibitor, partial curve]
O=C(O)c1ccccc1-c1nc2ccccc2n1-c1ccccc1 | inactive
Cc1c(C(=O)Nc2ccncc2)sc2nc(-c3ccc(F)cc3)cn12 | inconclusive [inhibitor, single point]
CCOc1ccc(-c2nc(CSc3nnc(N)s3)cs2)cc1OC | inconclusive [inhibitor, single point]
O=C(CC(=O)N/N=C/c1ccccc1)NCc1ccccc1 | inactive
Cc1ccc2cc3cc(C(=O)N(CC(=O)NC4CCCC4)c4cccc(C)c4C)sc3nc2c1 | inconclusive [inhibitor, partial curve]
Cc1cccc(NC(=S)NCc2cccn2C)c1 | inconclusive [inhibitor, single point]

Reference: PubChem BioAssay AID1461 (National Center for Advancing Translational Sciences (NCATS), 2008)
